Results: the supplement of paper PMC7125110
± gives the standard error. Variants at the background level are over-represented here.

B1: glmS ribozyme (parent)
chain: AUAAAAGCGCCAGAACUACAGAAAUGUAGUUGACGAGGAGGAGGUUUAUCGAAUUUUCGGCGGAUGCCUCCAAA

Columns and labels:
Conditions in all cases: with glucosamine-6-phosphate
glucosamine-6-phosphate [1] = variants of: B1; test: self-cleavage kobs at 40 uM GlcN6P; higher = faster cleavage; RNA array
Summary of the method: (§1)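 Sequenced MiSeq chips were the platform: E. coli RNA polymerase transcribed barcoded ribozyme variants on them in situ, and a hybridised Cy3 probe tracked these at 37 °C. After glucosamine-6-phosphate (40 μM to 10 mM) in HEPES/KCl/Mg(OAc)2 buffer was flowed in, tiles were imaged over ~14 h. Signals normalised to baseline and to non-cleaving reference variants were reduced to per-tile medians and fit to one- or two-exponential decays to obtain kobs. kcat and KM were derived through weighted Michaelis–Menten fits across concentrations.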

glucosamine-6-phosphate [2] = variants of: B1; test: self-cleavage kobs at 640 uM GlcN6P; higher = faster cleavage; RNA array
Summary of the method: as §1

glucosamine-6-phosphate [3] = variants of: B1; test: self-cleavage kobs at 160 uM GlcN6P; higher = faster cleavage; RNA array
Summary of the method: as §1

glucosamine-6-phosphate [4] = variants of: B1; test: self-cleavage kobs at 10000 uM GlcN6P; higher = faster cleavage; RNA array
Summary of the method: as §1

glucosamine-6-phosphate [5] = variants of: B1; test: self-cleavage kobs at 2500 uM GlcN6P; higher = faster cleavage; RNA array
Summary of the method: as §1

Variant	self-cleavage kobs at 40 uM GlcN6P (glucosamine-6-phosphate [1])	self-cleavage kobs at 640 uM GlcN6P (glucosamine-6-phosphate [2])	self-cleavage kobs at 160 uM GlcN6P (glucosamine-6-phosphate [3])	self-cleavage kobs at 10000 uM GlcN6P (glucosamine-6-phosphate [4])	self-cleavage kobs at 2500 uM GlcN6P (glucosamine-6-phosphate [5])
A12U G13U A48G G60A G62A	< 1e-05 s⁻¹	< 1e-05 s⁻¹	< 1e-05 s⁻¹	< 1e-05 s⁻¹	
G13C A39C U49C G62C	< 1e-05 s⁻¹				
A12G A33G U57G	< 1e-05 s⁻¹				
A12U A14C	0.000142 ± 1.3e-05 s⁻¹	0.00117 ± 0.00016 s⁻¹	0.000429 ± 6.9e-05 s⁻¹	0.00546 ± 0.00066 s⁻¹	0.00261 ± 0.00038 s⁻¹
A12U A14G	0.00336 ± 0.00044 s⁻¹	0.0265 ± 0.0078 s⁻¹	0.00737 ± 0.0027 s⁻¹		
A12C C67A	0.000204 ± 1.9e-05 s⁻¹	0.00125 ± 0.0002 s⁻¹	0.000456 ± 7.2e-05 s⁻¹	0.00467 ± 0.00054 s⁻¹	0.0034 ± 0.00084 s⁻¹
A12U G41U A42G	0.000102 ± 1.6e-05 s⁻¹			0.00149 ± 0.0003 s⁻¹	
A12U G40U C61A	< 1e-05 s⁻¹				
A12C A42U C68A	< 1e-05 s⁻¹			< 1e-05 s⁻¹	< 1e-05 s⁻¹
C11G G35U	< 1e-05 s⁻¹	< 1e-05 s⁻¹	< 1e-05 s⁻¹	< 1e-05 s⁻¹	
C11G G35C	< 1e-05 s⁻¹	< 1e-05 s⁻¹	< 1e-05 s⁻¹		
A12U A14U A53G	0.000135 ± 3.3e-05 s⁻¹				
A12C A42G	0.00118 ± 0.00019 s⁻¹		0.00222 ± 0.00053 s⁻¹		
C11U G41C U45G C58U	< 1e-05 s⁻¹	< 1e-05 s⁻¹			< 1e-05 s⁻¹
C11G G13U G32A A36C A52U	< 1e-05 s⁻¹				
A12U G59C U65G	< 1e-05 s⁻¹				
G13A A48U	< 1e-05 s⁻¹	< 1e-05 s⁻¹	< 1e-05 s⁻¹		
C11U A14C A33G A42U G60C	< 1e-05 s⁻¹		< 1e-05 s⁻¹	< 1e-05 s⁻¹	< 1e-05 s⁻¹
C11U G40C U46G	< 1e-05 s⁻¹				
C11G U65G	< 1e-05 s⁻¹	< 1e-05 s⁻¹		< 1e-05 s⁻¹	
C11G U65C	< 1e-05 s⁻¹	< 1e-05 s⁻¹	< 1e-05 s⁻¹	< 1e-05 s⁻¹	
C11G U65A	< 1e-05 s⁻¹	< 1e-05 s⁻¹		< 1e-05 s⁻¹	
A12G A15C A48C	< 1e-05 s⁻¹	< 1e-05 s⁻¹			
A12G G32U A33C	< 1e-05 s⁻¹				
A12C G38C G44A A64G	< 1e-05 s⁻¹				

Variant	self-cleavage kobs at 40 uM GlcN6P (glucosamine-6-phosphate [1])	self-cleavage kobs at 640 uM GlcN6P (glucosamine-6-phosphate [2])	self-cleavage kobs at 160 uM GlcN6P (glucosamine-6-phosphate [3])	self-cleavage kobs at 10000 uM GlcN6P (glucosamine-6-phosphate [4])	self-cleavage kobs at 2500 uM GlcN6P (glucosamine-6-phosphate [5])
G13A A15C A52G A53C	< 1e-05 s⁻¹				
A12C G13A U45A C68U	< 1e-05 s⁻¹				
C11G G60U	< 1e-05 s⁻¹	< 1e-05 s⁻¹	< 1e-05 s⁻¹	< 1e-05 s⁻¹	
A12C G32U G59C	< 1e-05 s⁻¹	< 1e-05 s⁻¹	< 1e-05 s⁻¹	< 1e-05 s⁻¹	< 1e-05 s⁻¹
C11U G13C C34A	< 1e-05 s⁻¹			< 1e-05 s⁻¹	
C11U G37U G43C	< 1e-05 s⁻¹	< 1e-05 s⁻¹	< 1e-05 s⁻¹		
G13A G32U A36U	< 1e-05 s⁻¹			< 1e-05 s⁻¹	
A12C A24U A52C C67A	< 1e-05 s⁻¹				
A12G U55C U57C C70A	< 1e-05 s⁻¹			< 1e-05 s⁻¹	
C11G G41U	< 1e-05 s⁻¹	< 1e-05 s⁻¹	< 1e-05 s⁻¹	< 1e-05 s⁻¹	< 1e-05 s⁻¹
A12C U31A G38U U45G	< 1e-05 s⁻¹			< 1e-05 s⁻¹	
G13C G51U	< 1e-05 s⁻¹	< 1e-05 s⁻¹	< 1e-05 s⁻¹	< 1e-05 s⁻¹	< 1e-05 s⁻¹
G13C G51A	< 1e-05 s⁻¹			< 1e-05 s⁻¹	< 1e-05 s⁻¹
A12U G35C A42C G60U C68A	< 1e-05 s⁻¹				
C11U A33G C61G	< 1e-05 s⁻¹			< 1e-05 s⁻¹	
A12G A33G C34U A48C C71G	< 1e-05 s⁻¹				
A12U C68G C70G	< 1e-05 s⁻¹				
A12C G51U	< 1e-05 s⁻¹				
A12U U69G	2.68e-05 ± 8.8e-06 s⁻¹	9.2e-05 ± 1e-05 s⁻¹	2.7e-05 ± 8.8e-06 s⁻¹	0.000145 ± 1.5e-05 s⁻¹	0.000109 ± 1e-05 s⁻¹
G13A A52C	< 1e-05 s⁻¹	< 1e-05 s⁻¹	< 1e-05 s⁻¹	< 1e-05 s⁻¹	< 1e-05 s⁻¹
G13A A52U	< 1e-05 s⁻¹		< 1e-05 s⁻¹		
A12C A15C A42U U57G C61G C71U	< 1e-05 s⁻¹		< 1e-05 s⁻¹		< 1e-05 s⁻¹
A12G G40A U55C	< 1e-05 s⁻¹				
C11U A36G G38C U69C	< 1e-05 s⁻¹				
A12U G62C	< 1e-05 s⁻¹	< 1e-05 s⁻¹	< 1e-05 s⁻¹	< 1e-05 s⁻¹	< 1e-05 s⁻¹

Variant	self-cleavage kobs at 40 uM GlcN6P (glucosamine-6-phosphate [1])	self-cleavage kobs at 640 uM GlcN6P (glucosamine-6-phosphate [2])	self-cleavage kobs at 160 uM GlcN6P (glucosamine-6-phosphate [3])	self-cleavage kobs at 10000 uM GlcN6P (glucosamine-6-phosphate [4])	self-cleavage kobs at 2500 uM GlcN6P (glucosamine-6-phosphate [5])
C11U U49A	< 1e-05 s⁻¹	< 1e-05 s⁻¹		< 1e-05 s⁻¹	< 1e-05 s⁻¹
C11U U47G A48C	< 1e-05 s⁻¹				
C11U U45C G60C C61G	< 1e-05 s⁻¹			< 1e-05 s⁻¹	
G13A C34U A36U	< 1e-05 s⁻¹			< 1e-05 s⁻¹	
A12G G13A G59A	< 1e-05 s⁻¹				
G13C G40C	< 1e-05 s⁻¹				
G13C G40U	< 1e-05 s⁻¹	< 1e-05 s⁻¹	< 1e-05 s⁻¹		
A12C A42U A64G	< 1e-05 s⁻¹	< 1e-05 s⁻¹			
C11G C70U	< 1e-05 s⁻¹				
C11G C71A	< 1e-05 s⁻¹		< 1e-05 s⁻¹		
C11G C71U	< 1e-05 s⁻¹		< 1e-05 s⁻¹		
C11U G32C G35U G43A	< 1e-05 s⁻¹			< 1e-05 s⁻¹	
C11G U54C C70U	< 1e-05 s⁻¹			< 1e-05 s⁻¹	
C11U A14G U31G G62A	< 1e-05 s⁻¹			< 1e-05 s⁻¹	
A12U A36G A52U C71G	< 1e-05 s⁻¹			< 1e-05 s⁻¹	< 1e-05 s⁻¹
G13A U47C	< 1e-05 s⁻¹			4.92e-05 ± 1.1e-05 s⁻¹	
A12U G44U A48C C71G	< 1e-05 s⁻¹	< 1e-05 s⁻¹	< 1e-05 s⁻¹		< 1e-05 s⁻¹
A12C G40U U47G U49G	< 1e-05 s⁻¹			< 1e-05 s⁻¹	< 1e-05 s⁻¹
A12C U45A U47C C50A G59C C70U	< 1e-05 s⁻¹	< 1e-05 s⁻¹		< 1e-05 s⁻¹	< 1e-05 s⁻¹
G13C G41U	< 1e-05 s⁻¹		< 1e-05 s⁻¹		
C11G U56G A64U	< 1e-05 s⁻¹		< 1e-05 s⁻¹		< 1e-05 s⁻¹
A12U G29U C61U	< 1e-05 s⁻¹			< 1e-05 s⁻¹	
C11U G41U A42G	< 1e-05 s⁻¹				
C11G G40A	< 1e-05 s⁻¹	< 1e-05 s⁻¹	< 1e-05 s⁻¹	< 1e-05 s⁻¹	
C11G G40U	< 1e-05 s⁻¹	< 1e-05 s⁻¹		< 1e-05 s⁻¹	< 1e-05 s⁻¹

Variant	self-cleavage kobs at 40 uM GlcN6P (glucosamine-6-phosphate [1])	self-cleavage kobs at 640 uM GlcN6P (glucosamine-6-phosphate [2])	self-cleavage kobs at 160 uM GlcN6P (glucosamine-6-phosphate [3])	self-cleavage kobs at 10000 uM GlcN6P (glucosamine-6-phosphate [4])	self-cleavage kobs at 2500 uM GlcN6P (glucosamine-6-phosphate [5])
A12G C50U	< 1e-05 s⁻¹				
A12C G60U	< 1e-05 s⁻¹	< 1e-05 s⁻¹	< 1e-05 s⁻¹		
A12U U46C U49G U65C	< 1e-05 s⁻¹				
A12C U57A G62A	< 1e-05 s⁻¹				
C11U G29C C34U U45A U69A	< 1e-05 s⁻¹			< 1e-05 s⁻¹	
G13A G60C	< 1e-05 s⁻¹	< 1e-05 s⁻¹		< 1e-05 s⁻¹	
G13A U54A	5.62e-05 ± 2.4e-05 s⁻¹	0.000147 ± 3.8e-05 s⁻¹	5.51e-05 ± 1.6e-05 s⁻¹	0.000709 ± 0.0001 s⁻¹	0.000299 ± 5.6e-05 s⁻¹
C11G G13A G32U G38U G44A C67G	< 1e-05 s⁻¹				
A12G C16A A36G U69C	< 1e-05 s⁻¹				
A12C U46C G60A	< 1e-05 s⁻¹				< 1e-05 s⁻¹
G13A U49G	< 1e-05 s⁻¹		< 1e-05 s⁻¹		
A12C U45G	0.000128 ± 4.1e-05 s⁻¹			0.012 ± 0.004 s⁻¹	
G13A G29U A39G G40A C58A C70G	< 1e-05 s⁻¹			< 1e-05 s⁻¹	< 1e-05 s⁻¹
A12U U54A U69A	0.000126 ± 4.4e-05 s⁻¹	0.000125 ± 2.7e-05 s⁻¹	0.000159 ± 4.6e-05 s⁻¹	0.000322 ± 6.8e-05 s⁻¹	0.000458 ± 9.4e-05 s⁻¹
A12G U49G	< 1e-05 s⁻¹		< 1e-05 s⁻¹		
C11G C34U G51A A53C	< 1e-05 s⁻¹			< 1e-05 s⁻¹	
G13C G43C	< 1e-05 s⁻¹	< 1e-05 s⁻¹	< 1e-05 s⁻¹	< 1e-05 s⁻¹	< 1e-05 s⁻¹
C11U A36G C50G	8.31e-05 ± 2.8e-05 s⁻¹	0.000352 ± 0.00014 s⁻¹		4.94e-05 ± 1.5e-05 s⁻¹	
A12C G35A	< 1e-05 s⁻¹	< 1e-05 s⁻¹	< 1e-05 s⁻¹	< 1e-05 s⁻¹	< 1e-05 s⁻¹
A12C U56G	0.000162 ± 2.5e-05 s⁻¹	0.00336 ± 0.00068 s⁻¹	0.000652 ± 0.00018 s⁻¹		0.0054 ± 0.0014 s⁻¹
A12U A36G A53G	< 1e-05 s⁻¹				
C11U C16U C71U	4.58e-05 ± 1.8e-05 s⁻¹	0.000215 ± 4.6e-05 s⁻¹		0.000614 ± 0.00012 s⁻¹	0.000443 ± 0.00011 s⁻¹
G13C G43A G63A A64G	< 1e-05 s⁻¹			< 1e-05 s⁻¹	
C11G C50A A52U G63A	< 1e-05 s⁻¹			< 1e-05 s⁻¹	
C11U A52U	< 1e-05 s⁻¹				
